Measurements from a collection of fitness landscapes (doi:10.1016/j.celrep.2020.107928).
The full ranking holds about 81,000 sequences; the median of “one-hybrid fitness for binding NBS DNA” is about -0.1, and the highest 2% start at about 0.36. Some of the results follow.

B1: Caulobacter ParB omega fusion; a variant is named by its letters at X, in order, B8GW30 (parent)
chain: MESVVVGEPGMSEGRRGLGRGLSALLGEVDAAPAQAPGEQLGGSREAPIEILQRNPDQPRRTFREEDLEDLSNSIREKGVLQPILVRPSPDTAGEYQIVAGERAWRAAQRAGLKTVPIMVRELDDLAVLEIGIIENVQRADLNVLEEALSYKVLMEKFERTQENIAQTIGKSXSHVANXMRLLXLPDEVQSYLVSGELTAXHARAIAAAADPVALAKQIIEGGLSVRETEALARKAPNLSAGKSKGGRPPRVKDTDTQALESDLSSVLGLDVSIDHRGSTGTLTITYATLEQLDDLCNRLTRGI

Variants of: B1
Test: one-hybrid fitness for binding NBS DNA (the Noc-binding site; scaled: cognate 1, non-cognate 0); higher = stronger binding
Settings: with NBS DNA site
Outline: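 Fitness is the rescaled log change in variant-to-wild-type read ratio, measured by Illumina sequencing of plasmids before and after bacterial one-hybrid selection. The scale puts cognate at 1 and non-cognate at 0. Selection of Caulobacter ParB libraries, four specificity codons randomised, took place in E. coli USO with a HIS3 reporter, site 19 bp from the promoter, over 48 hours at 37°C on M9-minus-histidine with 0.1 mM IPTG and 5 mM 3-AT.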

Variant	one-hybrid fitness for binding NBS DNA
QYFR	0.366
IYVL	≤ 0.2
ESIK	≤ 0.2
STAS	≤ 0.2
SDLM	≤ 0.2
FRFS	≤ 0.2
KAMT	≤ 0.2
RLYK	≤ 0.2
ECSD	≤ 0.2
RVWR	0.248
TPVI	≤ 0.2
VGMS	≤ 0.2
AYVG	≤ 0.2
RGKI	≤ 0.2
MWAL	≤ 0.2
RNGC	≤ 0.2
GWDP	≤ 0.2
DADT	≤ 0.2
HTFC	≤ 0.2
TIHR	≤ 0.2
ILCQ	≤ 0.2
QMIC	≤ 0.2
CHNC	≤ 0.2
QGER	≤ 0.2
MIWR	≤ 0.2

Variant	one-hybrid fitness for binding NBS DNA
SPQT	≤ 0.2
EQPS	≤ 0.2
WKCS	≤ 0.2
RVFA	≤ 0.2
QGIT	≤ 0.2
RCCV	≤ 0.2
NSIS	≤ 0.2
QAWQ	≤ 0.2
WLSL	≤ 0.2
SVNY	≤ 0.2
RGTQ	≤ 0.2
RWHC	≤ 0.2
MSPL	≤ 0.2
WDDS	≤ 0.2
CLEA	≤ 0.2
MVGC	≤ 0.2
CNSA	≤ 0.2
HPRG	≤ 0.2
PHPW	≤ 0.2
SMHR	≤ 0.2
TTNS	≤ 0.2
APCM	≤ 0.2
CMQR	≤ 0.2
TKAV	≤ 0.2
PQKC	≤ 0.2

Variant	one-hybrid fitness for binding NBS DNA
ISVR	≤ 0.2
RTAQ	≤ 0.2
FDGS	≤ 0.2
ISTF	≤ 0.2
VNDW	≤ 0.2
LLHF	≤ 0.2
QTYW	≤ 0.2
NKKT	≤ 0.2
QHWV	≤ 0.2
IIAR	≤ 0.2
AHSR	≤ 0.2
DKGR	≤ 0.2
YIPS	≤ 0.2
STMN	≤ 0.2
TPSW	≤ 0.2
RSGE	≤ 0.2
LNAS	≤ 0.2
PTLQ	≤ 0.2
AMSG	≤ 0.2
HKSN	≤ 0.2
TLLD	≤ 0.2
RVCH	≤ 0.2
RCRC	0.391
SVRD	≤ 0.2
VTAQ	≤ 0.2

Variant	one-hybrid fitness for binding NBS DNA
SQPH	≤ 0.2
NMWG	≤ 0.2
LRET	≤ 0.2
HKLV	≤ 0.2
ADKM	≤ 0.2
RRCC	0.325
RGRH	≤ 0.2
VHQR	≤ 0.2
ILFS	≤ 0.2
HVER	≤ 0.2
KATS	≤ 0.2
TLDY	≤ 0.2
QGMN	≤ 0.2
RYLL	≤ 0.2
HPVL	≤ 0.2
NTRM	≤ 0.2
HSNP	≤ 0.2
HCNF	≤ 0.2
HRFC	≤ 0.2
GDHA	≤ 0.2
WSDG	≤ 0.2
QTLH	0.223
VPGS	≤ 0.2
PVDN	≤ 0.2
RLDN	≤ 0.2

Variant	one-hybrid fitness for binding NBS DNA
DVYE	≤ 0.2
ATHP	≤ 0.2
YAMR	≤ 0.2
RKNN	≤ 0.2
RVCK	≤ 0.2
VLFR	≤ 0.2
VFKG	≤ 0.2
SWRG	≤ 0.2
AERT	≤ 0.2
PVPW	≤ 0.2
PPKM	≤ 0.2
IIMD	≤ 0.2
CLDL	≤ 0.2
ARIC	≤ 0.2
WGSD	≤ 0.2
TKHR	≤ 0.2
GRPN	≤ 0.2
FRKR	0.278
YPMK	≤ 0.2
VNEG	≤ 0.2
QYPI	≤ 0.2
PLGW	≤ 0.2
HPHL	≤ 0.2
PAGF	≤ 0.2
WPKW	≤ 0.2

Variant	one-hybrid fitness for binding NBS DNA
KRYA	0.313
YQYG	≤ 0.2
HKTG	≤ 0.2
QCEK	≤ 0.2
ITFY	≤ 0.2
CLWR	≤ 0.2
DFLN	≤ 0.2
MVSV	≤ 0.2
ESNE	≤ 0.2
YEDC	≤ 0.2
PYLP	≤ 0.2
DRAL	≤ 0.2
TFFP	≤ 0.2
YFLS	≤ 0.2
LSPM	≤ 0.2
VCND	≤ 0.2
TERG	≤ 0.2
ASVR	≤ 0.2
RLDH	≤ 0.2
SSGL	≤ 0.2
RLDF	≤ 0.2
FWGY	≤ 0.2
YMCE	0.227
TFMS	≤ 0.2
SVKA	≤ 0.2

Variant	one-hybrid fitness for binding NBS DNA
IRGI	≤ 0.2
SRWT	≤ 0.2
ATPI	≤ 0.2
ITKN	≤ 0.2
PAVQ	≤ 0.2
FAAF	≤ 0.2
HIMG	≤ 0.2
NAEF	≤ 0.2
QNKD	≤ 0.2
PEGP	≤ 0.2
PLYM	≤ 0.2
WRVF	≤ 0.2
SRHW	≤ 0.2
VAHA	≤ 0.2
CPGG	≤ 0.2
AGQG	≤ 0.2
LVVA	≤ 0.2
GYAR	≤ 0.2
GQPT	≤ 0.2
VETC	≤ 0.2
DAWT	≤ 0.2
GGVH	≤ 0.2
FLQR	≤ 0.2
TVIC	≤ 0.2
NYYR	≤ 0.2

Variant	one-hybrid fitness for binding NBS DNA
TASC	≤ 0.2
PIAS	≤ 0.2
VAPT	≤ 0.2
PDTY	≤ 0.2
PRLV	≤ 0.2
CAPT	≤ 0.2
QCHC	0.238
PFSV	≤ 0.2
SHWH	≤ 0.2
RGYV	≤ 0.2
QSAL	≤ 0.2
PARH	≤ 0.2
QDLM	≤ 0.2
PNQT	≤ 0.2
NLTM	≤ 0.2
RRVL	≤ 0.2
WGAS	≤ 0.2
GVHK	≤ 0.2
KWLI	≤ 0.2
SNRD	≤ 0.2
